The RNAGym collection of RNA variant scans (doi:10.7554/elife.90254)
Read counts are not given, so values of variants with three or more changes are uncertain.

B1: LINE1-mini (parent)
chain: GGCAGAGCUCAACACAGCGUGGCAAAGUGGCUGUGGCUAGACUGCC

Variants of: B1
Assay: self-cleavage, relative activity (ratio to wild type); higher = more cleavage; in vitro, sequencing; the parent is a self-cleaving ribozyme

Variant	self-cleavage
C10A G19U C37U A41G G44C	0.01
G7U C15U G40U	0.16
C8U C13A U28A C37U C45U	0.34
A6C A11G U20G	0.01
A6U A11G C13A C15A G36C C37U	0.05
G7A U9C A12U	0.02
A25G U34A C46G	0.06
G5A G7C C31A A41C	0.02
G2A A14G G22A A26G U43C	0.09
G1C G21C G36A C42U	0.04
C3A G7A C13A G22U	0.05
A4U U28G G29U G30A U34A	0.08
A6C U20G C23U G29U	0.4
G5A C10G G21A A25U C31A U34C C42A	0.01
C8G C10G G30U	0.04
C15A G22U G27A G33U	0.35
G2A A24C U32G	0.19
C10U A24U U28G G44C	0.41
G5U C8G G22U	0.34
C10A G17A A24U	0.02
A6C C10A C23U G30U G44A	0.02

Variant	self-cleavage
C10A G40U U43G	0.02
A4C C10A G17A C37U C45A	0.01
G2A A16G A39G	0.16
U9A A12U G35C	0.03
C15A G17A G29C	0.09
G5A G33C C42U	0.27
A25U G35U C42A	0.11
C3G U9A G36U C42A	0.16
C3G C18G A41G	0.12
C3A A14G A41U	0.32
U20G C37A G44A	0.07
A4C G5U G30A G40A	0.23
G17U G19U A25G C37G	0.18
G2U A12C G27U G33U	0.02
G1U G22U G33A U34A U43G	0
C18A U38G A39U	0.07
G1A U43A C45A C46U	0.02
G1C A14G G30C	0.02
G1C U20G G27C C31A G36A	0.01
C15U G17U U20C	0.03
C8A A24U U34C C37U	0.13

Variant	self-cleavage
C3G C15A G27C G44U	0.46
G19U A24G A39U C46G	0.05
C8G A12G U20A	0.05
U28A G33C C42A	0.04
G7C A16C U28A	0
C13A G22U G40U	0.13
C10A C13G C18A G30A G40A	0.01
A4U A12G C18A G30U C42U	0.02
C8U G19A G29U G33A	0.62
G17A C18U U32C G35U	0.01
G5U C13G C31A	0.04
C8A U38G C46A	0.07
A16C C23A C42A	0.06
G1U C8U C10G G30U G35C	0.01
G1U C3A A6U G27C C31U A41G C46G	0.07
G2U A14G G33A	0.01
U9A G19U A41U	0.08
C10G A11G G30A C37A	0.01
C10U A16G G30A C31A	0.05
C3G A11U A16U G30C C37A	0.01
U20G G33U A39G	0.03

Variant	self-cleavage
G1A C37G A41G U43A	0.03
C10G A11U C18U	0.01
A16C C23G G33U	0.02
A6G A14G C18U U20C	0.12
A11U G21C C23U A39U	0.04
G5C G19C U38A C45G	0
G5A G7U C8A U9C C10U C37G C42U	0.02
C3U A12U C15G	0.04
C8A C10G G17C A41G	0
A6G G30U G33U	0.03
C8G U9A A25C	0.08
C23G G35A U38A C42A U43C	0.07
A6U C13U U28G C31A G33A	0.19
G2U G17U G22A C23G	0.01
C18U G29U C31A	0.09
G1A A4U U32G U34A	0.1
C13U G17U U32A A39G U43G C46G	0
C3A A6G U9G A11U C15U A16U G21A A24U A25U	0.03
G5C C10A A12C U43A	0.03
U9C C10A A24U	0.02
